The source of these data is PMC4336329 (PLoS ONE, 2015).

The structures appear in SMILES notation. The campaign covered roughly 310,000 compounds. About 2,200 (0.71%) showed an effect of 50% or more. The effect is printed as a negative number. Some of the results follow.

The assay deals with human ether-à-go-go-related gene (hERG) potassium channel (human, UniProt Q12809). The experiment in a line: primary screen, population patch clamp on CHO cells stably expressing hERG.
human ether-à-go-go-related gene (hERG) potassium channel, sequence (Q12809 whole entry, looked up): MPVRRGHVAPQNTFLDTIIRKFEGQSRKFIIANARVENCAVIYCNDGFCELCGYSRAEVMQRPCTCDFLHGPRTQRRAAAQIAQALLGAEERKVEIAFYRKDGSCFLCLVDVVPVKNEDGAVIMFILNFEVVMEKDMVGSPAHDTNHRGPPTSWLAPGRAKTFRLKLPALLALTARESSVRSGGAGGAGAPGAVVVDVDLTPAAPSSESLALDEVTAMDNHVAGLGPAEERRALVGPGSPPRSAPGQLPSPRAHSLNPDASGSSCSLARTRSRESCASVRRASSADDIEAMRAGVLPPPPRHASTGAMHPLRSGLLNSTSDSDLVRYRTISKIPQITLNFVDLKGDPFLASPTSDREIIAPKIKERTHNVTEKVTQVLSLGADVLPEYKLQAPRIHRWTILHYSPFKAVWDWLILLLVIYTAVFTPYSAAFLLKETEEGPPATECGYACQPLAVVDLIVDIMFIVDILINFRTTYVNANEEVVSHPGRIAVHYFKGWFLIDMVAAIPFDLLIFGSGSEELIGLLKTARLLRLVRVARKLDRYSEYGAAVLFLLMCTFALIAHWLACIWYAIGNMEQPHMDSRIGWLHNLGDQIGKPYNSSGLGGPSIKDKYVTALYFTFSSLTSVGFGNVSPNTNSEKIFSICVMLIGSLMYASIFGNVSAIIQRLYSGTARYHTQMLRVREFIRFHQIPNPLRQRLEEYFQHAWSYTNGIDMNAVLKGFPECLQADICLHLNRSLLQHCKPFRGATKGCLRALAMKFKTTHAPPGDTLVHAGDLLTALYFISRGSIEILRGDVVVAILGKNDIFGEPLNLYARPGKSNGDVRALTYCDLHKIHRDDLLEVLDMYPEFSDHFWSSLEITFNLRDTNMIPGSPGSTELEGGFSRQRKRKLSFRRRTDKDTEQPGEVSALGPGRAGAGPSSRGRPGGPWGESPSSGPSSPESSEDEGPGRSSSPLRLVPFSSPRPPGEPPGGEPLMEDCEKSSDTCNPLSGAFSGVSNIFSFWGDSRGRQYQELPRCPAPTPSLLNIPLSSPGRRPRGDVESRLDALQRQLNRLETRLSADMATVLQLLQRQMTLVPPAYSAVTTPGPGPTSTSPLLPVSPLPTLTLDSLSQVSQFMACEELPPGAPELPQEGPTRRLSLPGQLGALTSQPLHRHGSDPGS
On to `CC1CN(C(=O)CS(=O)(=O)Cc2ccccc2)CC(C)O1` (centres unmarked), for which the “hERG current change (%, negative = inhibition) at 1uM” value is 11%.
In the case of `COc1cc2c(cc1OC)C(C)N(C(=O)Cn1ncc3c1-c1ccccc1OC3)CC2` (centres unmarked), the “hERG current change (%, negative = inhibition) at 1uM” value was found to be 1.99%.
Take `Cc1ccc(SCCC(=O)N2CCOCC2)cc1`: the “hERG current change (%, negative = inhibition) at 1uM” value came out at 1.22%.
For `C/C(CC(=O)Nc1ccc(Cl)cc1Cl)=N\NC(=O)c1ccco1`, the “hERG current change (%, negative = inhibition) at 1uM” value turned out to be 6.15%.
As to `CCOc1ccc(NC(=S)Nc2cc(OC)c(Cl)cc2OC)cc1`, the “hERG current change (%, negative = inhibition) at 1uM” value was determined as 9.91%.
As for `Cc1c(C(=O)O)c(C(=O)O)c2n1CCS2`, the “hERG current change (%, negative = inhibition) at 1uM” value turned out to be 12%.
With `Cc1nc(N2CCC(C(N)=O)CC2)c2c(-c3cccs3)csc2n1`, the “hERG current change (%, negative = inhibition) at 1uM” value was 12.3%.
`O=C1CN(C(=O)c2ccc(F)c(S(=O)(=O)N3CCOCC3)c2)c2ccccc2N1`: the “hERG current change (%, negative = inhibition) at 1uM” value was found to be 26.5%.
The same measure for `CCC(=O)Nc1ccccc1N1CCN(S(C)(=O)=O)CC1`: 6.08%.
As to `Cc1cc(OCC(=O)NCc2ccncc2)c2c3c(c(=O)oc2c1)CCCC3`, the “hERG current change (%, negative = inhibition) at 1uM” value is given as -29.5%.
As to `CC1CN(c2ccc(Oc3ccccc3)cc2)c2nc3c(c(=O)n(CC(N)=O)c(=O)n3C)n2C1` (centres unmarked), the “hERG current change (%, negative = inhibition) at 1uM” value came out at 6.7%.
For the compound `COC(=O)CNC(c1ccccc1)c1cc(Cl)ccc1NC(=O)c1cccc(Cl)c1` (centres unmarked), the “hERG current change (%, negative = inhibition) at 1uM” value came out at 8.6%.
Take `COCCNC(=S)N1CCN(C(c2ccccc2)c2ccccc2)CC1`: the “hERG current change (%, negative = inhibition) at 1uM” value is recorded as 9.94%.
Turning to `Cc1ccc(S(=O)(=O)N2CCN(C(=O)c3ccc([N+](=O)[O-])cc3)C2)cc1`, the “hERG current change (%, negative = inhibition) at 1uM” value is reported as -14.7%.
The same measure for `COC(=O)c1ccc(Cl)c(NC(=O)NC23CC4CC(CC(C4)C2)C3)c1`: 7.25%.
The figure for `COc1ccc(CN2CC[C@H]3C=CC[C@@H](C(=O)NCCc4ccccc4)[C@H]3C2=O)cc1OC` is 6.91%.
In the case of `CCCC(=O)C1=C(O)C(C(=O)OC)C(C)(C)CC1=NCCc1ccccc1` (centres unmarked), the “hERG current change (%, negative = inhibition) at 1uM” value stood at 17.5%.
Turning to `Cc1nc2ccc(C(=O)N3CCN(c4ccccc4)CC3)cc2s1`, the “hERG current change (%, negative = inhibition) at 1uM” value amounted to 8.8%.
The same measure for `Cc1ccccc1-n1nnnc1SCC(=O)Nc1ccc(S(=O)(=O)N2CCCC2)cc1`: 12.1%.
Regarding `O=C(O)CSc1nnc(-c2ccccc2O)n1Cc1ccccc1`, the “hERG current change (%, negative = inhibition) at 1uM” value was found to be 1.17%.
The same measure for `CCCCC(CC)C(=O)Nc1ccc(C#N)cc1` (centres unmarked): -7.62%; for `COc1ccc(C2CC(c3c(O)n(CCc4ccccc4)c(=O)[nH]c3=O)=NN2)cc1OC` (centres unmarked): 4.53%; for `CCNC(=S)N(CCO)Cc1cc2cc3c(cc2[nH]c1=O)OCO3`: 14%.
Take `CCOC(=O)c1cc(-c2ccc(OC)cc2OC)nn1-c1ccc(C(=O)O)cc1`: the “hERG current change (%, negative = inhibition) at 1uM” value came to 18.3%.
The same measure for `CSc1ccc(CNC(=O)C2CCC(=O)N(CCc3cccc(F)c3)C2)cc1` (centres unmarked): 10.3%.
As for `CCn1c(SC)nc(O)c(C(c2ccc(OC)c(O)c2)c2c(O)nc(SC)n(CC)c2=O)c1=O`, the “hERG current change (%, negative = inhibition) at 1uM” value amounted to 9.01%.
The figure for `CC(C)[C@H](NC(=O)N1CC(=O)Nc2ccccc21)C(=O)N[C@H](Cc1ccccc1)C(=O)O` is 8.2%.
The same measure for `CSc1ccc(C(c2c(C)[nH][nH]c2=O)c2c(C)[nH][nH]c2=O)cc1`: 16.7%; for `Cc1cccc(C)c1OCC(=O)N1CC2(C)CC1CC(C)(C)C2` (centres unmarked): 9.34%; for `O=C1c2ccccc2C(=O)N1CCCn1c(=O)oc2ccccc21`: 14.5%.
The figure for `CN(C)S(=O)(=O)c1cccc(C(=O)OCC(=O)c2ccc3c(c2)NC(=O)CO3)c1` is -6.65%; for `CC(C)(NO)/C(=N\O)c1ccc(Cl)cc1.Cl` it is 5.61%.
Turning to `COc1ccc(C(=O)N(C)Cc2cnn(Cc3ccccc3)c2)cc1S(=O)(=O)N1CCOCC1`, the “hERG current change (%, negative = inhibition) at 1uM” value was found to be 0.372%.
The figure for `CCOc1ccc(C(=O)CCN2CCCCCC2)cc1.Cl` is -11.1%; for `COc1ccc(NC(=O)CN(C)CC(=O)Nc2ccc(C)c(S(=O)(=O)N3CCCCC3)c2)cc1` it is 4.66%.
The figure for `CC1(C)CC(=O)C(C=NCCN2CCN(C(=O)Cc3ccc(F)cc3)CC2)=C(O)C1` is -6.96%; for `COc1ccc(CC(=O)NCc2csc(-c3cccs3)n2)cc1OC` it is 7.04%; for `COCCCNC(=O)CSC1=Nc2ccccc2C2=NC(CC(=O)NCc3ccccc3)C(=O)N12` (centres unmarked) it is 11.4%.
The same measure for `CC(=O)c1c(C)n(-c2ccccc2)c2ccc(O)cc12`: 16%; for `CC1CCN(C(=O)Cn2nc(C(F)(F)F)c3c2CCCC3)CC1`: 0.104%.
As for `Cc1cnc2cc(Cl)c(Cl)cc2n1`, the “hERG current change (%, negative = inhibition) at 1uM” value is reported as 6.84%.
For the compound `COc1ccc(OCCOc2ccc(C)nc2[N+](=O)[O-])cc1`, the “hERG current change (%, negative = inhibition) at 1uM” value was found to be 12.1%.
The same measure for `O=C(NCc1n[nH]c(=S)n1-c1ccc(Cl)c(Cl)c1)c1cccs1`: 11.5%.
In the case of `CCS(=O)(=O)c1ccc(O)c(NC(=O)COc2ccc(OC)cc2)c1`, the “hERG current change (%, negative = inhibition) at 1uM” value is given as 13.5%.
On to `O=C(CC1C(=O)NCCN1CC(c1ccccc1)c1ccccc1)NCCc1cn[nH]c1` (centres unmarked), for which the “hERG current change (%, negative = inhibition) at 1uM” value stood at 15.2%.
The same measure for `Cc1ccc(SCCNS(C)(=O)=O)cc1`: 9.33%; for `COc1ccc(C(=O)Nc2nc(-c3cccs3)c(NC(C)=O)s2)cc1`: 15.8%; for `CC(C)c1ccc(N(CC(=O)NCc2ccco2)C(=O)CCC(=O)Nc2nccs2)cc1`: 2.23%.
Consider `O=C(c1ccco1)N1CCN(C(=O)c2cc3c(=O)oc4ccccc4c3s2)CC1`, for which the “hERG current change (%, negative = inhibition) at 1uM” value was 1.58%.
The figure for `O=C1CN(C(=S)NC(=O)c2ccc(-c3ccccc3)cc2)CCN1` is 4.58%; for `CCc1ccccc1N1C(=O)/C(=C/c2ccc(N3CCN(C)CC3)o2)C(=O)NC1=S` it is 11.8%.
For `Nc1nc2n(n1)C(c1cccc(Br)c1)CC(c1ccc(F)cc1)N2` (centres unmarked), the “hERG current change (%, negative = inhibition) at 1uM” value is on record as -23.8%.
In the case of `O=c1c2ccccc2sn1-c1ccc(S(=O)(=O)N2CCCCC2)cc1`, the “hERG current change (%, negative = inhibition) at 1uM” value was determined as 14.3%.
In the case of `CC(=O)Nc1cccc(NC(=O)CSc2nnc(Cc3cccn3C)n2CCc2ccccc2)c1`, the “hERG current change (%, negative = inhibition) at 1uM” value is -9.05%.
On to `COc1ccccc1CNC(=O)Cn1cccc1`, for which the “hERG current change (%, negative = inhibition) at 1uM” value turned out to be 4.51%.
The same measure for `Cc1ccnc(NS(=O)(=O)c2ccc(-n3cccn3)cc2)c1`: 14.8%; for `COCCOC(=O)c1c(N)n(Cc2ccccc2)c2nc3ccccc3nc12`: -12.5%.
The same measure for `Cl.OC(COCCC12CC3CC(CC(C3)C1)C2)CN1CCCC1` (centres unmarked): -5%; for `O=C(O)CCCCCCCCCCCNC(=O)NC12CC3CC(CC(C3)C1)C2`: 15.9%.
For `COc1ccc(-n2c(/C=C/c3cccc(F)c3)nc3ccccc3c2=O)c(OC)c1`, the “hERG current change (%, negative = inhibition) at 1uM” value was 16.6%.
For `Fc1cccc(NC(=S)Nc2cccc3ccccc23)c1`, the “hERG current change (%, negative = inhibition) at 1uM” value is -5.02%.
The figure for `O=C(O)c1ccccc1S(=O)(=O)NCC(O)COC1CCCCC1` (centres unmarked) is 1.32%.
The same measure for `COc1ccccc1C(=O)NC(=O)COC(=O)CN1C(=O)NC(C)(C)C1=O`: 28.2%.
The same measure for `NC(=O)C1CCN(CC(=O)Nc2cccc(C(=O)Nc3cccc(C(F)(F)F)c3)c2)CC1`: 5.56%; for `COc1ccc(/C=C/C(=O)N2CC(C)OC(C)C2)cc1OC` (centres unmarked): 8.4%.
`COc1cc2c3cc1Oc1cc(ccc1O)C[C@@H]1c4c(cc(OC)c(O)c4Oc4ccc(cc4)C[C@H]3N(C)CC2)CCN1C`: the “hERG current change (%, negative = inhibition) at 1uM” value is -7.98%.
Consider `COc1ccc(CCNC(=O)Cn2nc(C)c3c(C)n(-c4ccccc4)nc3c2=O)c(OC)c1`, for which the “hERG current change (%, negative = inhibition) at 1uM” value is on record as 15.3%.
Regarding `Cc1ccc(N(CCC#N)C(=O)COC(=O)c2ccccn2)cc1`, the “hERG current change (%, negative = inhibition) at 1uM” value worked out at 12.6%.
The same measure for `Cc1ccc(C(=O)N2CCCC(Nc3ccc(C(C)C)cc3)C2)cn1` (centres unmarked): 15.5%.
The same measure for `CCC(=O)Nc1ccccc1C(=O)OCc1ccc(C(=O)c2ccccc2)cc1`: -10.1%; for `CNC(=O)C1CC(=O)N(Cc2ccc3c(c2)OCO3)C(=Nc2ccc(F)cc2)S1` (centres unmarked): -4.85%; for `Cc1ccc(-c2ccc(=O)n(CCC(=O)N3CCN(Cc4ccccc4)CC3)n2)cc1`: -14.4%.
The same measure for `CC(C)(C)C(=O)NC(=S)NNC(=O)c1ccc(Cl)cc1Cl`: 14.6%; for `CCCCCCNC(=O)N1C/C=C\C(c2ccc(OC)cc2)N(Cc2ccc(F)cc2)C(=O)C1` (centres unmarked): 6.54%.
In the case of `C#CCSc1nnc(-c2ccc([N+](=O)[O-])cc2)o1`, the “hERG current change (%, negative = inhibition) at 1uM” value is reported as 11.7%.
Turning to `Cc1ccc(/C=C/C(=O)OC(C)C(=O)Nc2ncc(Cl)cc2Cl)o1` (centres unmarked), the “hERG current change (%, negative = inhibition) at 1uM” value is 15.3%.
In the case of `O=C(Cc1ccccc1)NNC(=O)c1ccc(NC(=O)c2ccccc2)cc1`, the “hERG current change (%, negative = inhibition) at 1uM” value came out at 12.6%.
Regarding `O=C(C1COc2ccccc2O1)N1CCN(S(=O)(=O)c2cc(F)ccc2F)CC1` (centres unmarked), the “hERG current change (%, negative = inhibition) at 1uM” value is listed as -0.683%.
The figure for `C/C(=N/O)c1c(O)c(C)c(-c2ccccc2)n(-c2ccccc2)c1=O` is 11%; for `COc1ccc(COc2ccsc2C(=O)Nc2ccc(Cl)c(Cl)c2)cc1` it is 13.6%; for `O=C(CCSc1ccc(Br)cc1)c1ccc(O)cc1` it is 12.2%.
The figure for `CCOc1ccc(NC(=O)CC2CC(C)(C)OC2=O)cc1` (centres unmarked) is 0.751%; for `CCCC(C)NC(=O)CSc1nc2ccc(C)cc2[nH]1` (centres unmarked) it is 10%; for `Clc1ccc(-c2csc(N3CCc4ccccc4C3)n2)cc1` it is 14.1%.
In the case of `CCOc1ccc(NC(=O)COC(=O)c2cc(S(=O)(=O)N3CCCC3)ccc2C)cc1`, the “hERG current change (%, negative = inhibition) at 1uM” value is -1.19%.
For `COc1ccccc1N1C(=O)NC(=O)/C(=C\c2cnn(-c3ccccc3)c2)C1=O`, the “hERG current change (%, negative = inhibition) at 1uM” value stood at 2.18%.
